# Test results as given in the supplement of paper PMC8728848.
# Some of the results follow.
# Legend:
# Assay in all cases: glycan array binding signal (z-score within array); higher = stronger binding
# Details in all cases: glycan notation: IUPAC condensed, linker removed
# [1] = molecular target: GlcNAc(b1-3)Gal(b1-4)GlcNAc(b1-3)Gal(b1-4)GlcNAc(b1-3)GalNAc
# How it was run: (§1)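 The binding signal is a Z-score computed within each array and averaged over linkers. Arrays of the same protein sequence at different concentrations or buffers were also averaged together. Data originate from 3228 arrays in the Consortium for Functional Glycomics database, kept only where the protein sequence was available.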
# [2] = molecular target: GlcNAc(b1-3)Gal(b1-4)GlcNAc(b1-3)GalNAc
# How it was run: as §1
# [3] = molecular target: GlcNAc(b1-3)Gal(b1-4)GlcNAc(b1-3)[GlcNAc(b1-3)Gal(b1-4)GlcNAc(b1-3)]GalNAc
# How it was run: as §1
# [4] = molecular target: GlcNAc(b1-3)Gal(b1-4)GlcNAc(b1-6)[Gal(b1-3)]GalNAc
# How it was run: as §1
# [5] = molecular target: GlcNAc(b1-3)Gal(b1-4)GlcNAc(b1-6)[GlcNAc(b1-3)Gal(b1-3)]GalNAc
# How it was run: as §1
# [6] = molecular target: GlcNAc(b1-3)Gal(b1-4)GlcNAc(b1-6)[GlcNAc(b1-3)]Gal(b1-4)GlcNAc
# How it was run: as §1
# [7] = molecular target: GlcNAc(b1-3)GalNAc
# How it was run: as §1
# [8] = molecular target: GlcNAc(b1-3)Man
# How it was run: as §1
# [9] = molecular target: GlcNAc(b1-3)[GlcNAc(b1-4)][GlcNAc(b1-6)]GlcNAc
# How it was run: as §1
# [10] = molecular target: GlcNAc(b1-3)[GlcNAc(b1-6)]Gal(b1-4)GlcNAc
# How it was run: as §1
# [11] = molecular target: GlcNAc(b1-3)[GlcNAc(b1-6)]GalNAc
# How it was run: as §1
# [12] = molecular target: GlcNAc(b1-4)Gal(b1-4)GlcNAc
# How it was run: as §1
# [13] = molecular target: GlcNAc(b1-4)GlcNAc
# How it was run: as §1
# [14] = molecular target: GlcNAc(b1-4)GlcNAc(b1-4)GlcNAc
# How it was run: as §1
# [15] = molecular target: GlcNAc(b1-4)GlcNAc(b1-4)GlcNAc(b1-4)GlcNAc(b1-4)GlcNAc
# How it was run: as §1
# [16] = molecular target: GlcNAc(b1-4)GlcNAc(b1-4)GlcNAc(b1-4)GlcNAc(b1-4)GlcNAc(b1-4)GlcNAc
# How it was run: as §1
# [17] = molecular target: GlcNAc(b1-4)[GlcNAc(b1-6)]GalNAc
# How it was run: as §1
# [18] = molecular target: GlcNAc(b1-6)Gal(b1-4)GlcNAc
# How it was run: as §1
# [19] = molecular target: GlcNAc(b1-6)GalNAc
# How it was run: as §1
# [20] = molecular target: GlcNAc6S(b1-3)Gal(b1-4)GlcNAc
# How it was run: as §1
# [21] = molecular target: Kdn(a2-3)Gal(b1-3)GalNAc
# How it was run: as §1
# [22] = molecular target: Kdn(a2-3)Gal(b1-3)GlcNAc
# How it was run: as §1
# [23] = molecular target: Kdn(a2-3)Gal(b1-4)Glc
# How it was run: as §1
# [24] = molecular target: Kdn(a2-3)Gal(b1-4)GlcNAc
# How it was run: as §1
# [25] = molecular target: Kdn(a2-3)Gal(b1-4)[Fuc(a1-3)]GlcNAc
# How it was run: as §1
# [26] = molecular target: Kdn(a2-6)Gal(b1-4)GlcNAc
# How it was run: as §1
# [27] = molecular target: Man(a1-2)Man(a1-2)Man(a1-3)Man
# How it was run: as §1
# [28] = molecular target: Man(a1-2)Man(a1-2)Man(a1-6)[Man(a1-3)]Man
# How it was run: as §1
# [29] = molecular target: Man(a1-2)Man(a1-3)Man
# How it was run: as §1
# [30] = molecular target: Man(a1-2)Man(a1-3)[Man(a1-2)Man(a1-6)]Man
# How it was run: as §1
# [31] = molecular target: Man(a1-2)Man(a1-3)[Man(a1-2)Man(a1-6)]Man(a1-6)[Man(a1-2)Man(a1-2)Man(a1-3)]Man
# How it was run: as §1
# [32] = molecular target: Man(a1-2)Man(a1-3)[Man(a1-2)Man(a1-6)]Man(a1-6)[Man(a1-2)Man(a1-2)Man(a1-3)]Man(b1-4)GlcNAc(b1-4)GlcNAc
# How it was run: as §1
# [33] = molecular target: Man(a1-2)Man(a1-3)[Man(a1-6)]Man(a1-6)[Man(a1-2)Man(a1-3)]Man(b1-4)GlcNAc(b1-4)GlcNAc
# How it was run: as §1
# [34] = molecular target: Man(a1-2)Man(a1-6)[Man(a1-3)]Man(a1-6)[Man(a1-2)Man(a1-2)Man(a1-3)]Man
# How it was run: as §1
# [35] = molecular target: Man(a1-2)Man(a1-6)[Man(a1-3)]Man(a1-6)[Man(a1-2)Man(a1-2)Man(a1-3)]Man(b1-4)GlcNAc(b1-4)GlcNAc
# How it was run: as §1
# [36] = molecular target: Man(a1-3)[Man(a1-6)]Man
# How it was run: as §1
# [37] = molecular target: Man(a1-3)[Man(a1-6)]Man(a1-6)[Man(a1-2)Man(a1-3)]Man(b1-4)GlcNAc(b1-4)GlcNAc
# How it was run: as §1
# [38] = molecular target: Man(a1-3)[Man(a1-6)]Man(a1-6)[Man(a1-3)]Man
# How it was run: as §1
# [39] = molecular target: Man(a1-3)[Man(a1-6)]Man(a1-6)[Man(a1-3)]Man(b1-4)GlcNAc(b1-4)GlcNAc
# How it was run: as §1
# [40] = molecular target: Man(a1-3)[Man(a1-6)]Man(b1-4)GlcNAc(b1-4)GlcNAc
# How it was run: as §1
# [41] = molecular target: Man(a1-3)[Man(a1-6)]Man(b1-4)GlcNAc(b1-4)[Fuc(a1-6)]GlcNAc
# How it was run: as §1
# [42] = molecular target: Man(a1-6)Man
# How it was run: as §1
# [43] = molecular target: Man(b1-4)GlcNAc
# How it was run: as §1
# [44] = molecular target: MurNAc(b1-4)GlcNAc
# How it was run: as §1
# [45] = molecular target: Neu5Ac(a2-3)Gal
# How it was run: as §1
binder,measurement,setting,value
"CLECb-Precomplexed (Mus musculus), P43025 (protein) MAKNGLVLCILVVSLLLDQTDGYPSRMKARKHSKRRVKAKDDDLKSQVEKLWREVNALKEMQALQTVCLRGTKVHKKCYLASEGLKHYHEANEDCISKGGTLVVPRNSDEINALRDYGKRSLPGVNDFWLGINDMVTEGKFLDVHGFAVSFLNWDRAQPSGGKRENCVLFSQSAQGKWSDEACRSSKRYICEFIIPTRTRPLEQKLISEEDLAANDILDYKDDDDKV",glycan array binding signal (z-score),[1],-0.408
same,glycan array binding signal (z-score),[2],0.019
same,glycan array binding signal (z-score),[3],-0.334
same,glycan array binding signal (z-score),[4],-0.309
same,glycan array binding signal (z-score),[5],0.208
same,glycan array binding signal (z-score),[6],-0.024
same,glycan array binding signal (z-score),[7],-0.282
same,glycan array binding signal (z-score),[8],-0.185
same,glycan array binding signal (z-score),[9],-0.456
same,glycan array binding signal (z-score),[10],-0.296
same,glycan array binding signal (z-score),[11],-0.173
same,glycan array binding signal (z-score),[12],-0.159
same,glycan array binding signal (z-score),[13],-0.072
same,glycan array binding signal (z-score),[14],-0.15
same,glycan array binding signal (z-score),[15],-0.326
same,glycan array binding signal (z-score),[16],-0.322
same,glycan array binding signal (z-score),[17],0.264
same,glycan array binding signal (z-score),[18],-0.575
same,glycan array binding signal (z-score),[19],-0.354
same,glycan array binding signal (z-score),[20],-0.319
same,glycan array binding signal (z-score),[21],-0.702
same,glycan array binding signal (z-score),[22],-0.459
same,glycan array binding signal (z-score),[23],-0.106
same,glycan array binding signal (z-score),[24],-0.42
same,glycan array binding signal (z-score),[25],-0.433
same,glycan array binding signal (z-score),[26],-0.461
same,glycan array binding signal (z-score),[27],0.144
same,glycan array binding signal (z-score),[28],0.553
same,glycan array binding signal (z-score),[29],-0.151
same,glycan array binding signal (z-score),[30],-0.135
same,glycan array binding signal (z-score),[31],-0.161
same,glycan array binding signal (z-score),[32],-0.067
same,glycan array binding signal (z-score),[33],0.329
same,glycan array binding signal (z-score),[34],-0.257
same,glycan array binding signal (z-score),[35],0.003
same,glycan array binding signal (z-score),[36],-0.427
same,glycan array binding signal (z-score),[37],-0.07
same,glycan array binding signal (z-score),[38],-0.045
same,glycan array binding signal (z-score),[39],-0.24
same,glycan array binding signal (z-score),[40],0.041
same,glycan array binding signal (z-score),[41],-0.2
same,glycan array binding signal (z-score),[42],0.07
same,glycan array binding signal (z-score),[43],-0.346
same,glycan array binding signal (z-score),[44],-0.525
same,glycan array binding signal (z-score),[45],-0.063
